Screen size: about 4,800 compounds; about 410 (8.5%) showed an effect of 50% or more. The list shows a part of the results.
test system: Plasmodium falciparum; experiment: Confirmatory screen in NF54 pLDH assay, in single point, at 2uM, 72h; assay type: functional, Erythrocyte; settings: timepoint 72 hour

Row | Compound | % Inhibition [%]
1 | Cc1ccccc1S(=O)(=O)NCc1nnc(C(=O)Nc2ccc(F)cc2F)s1 | 11
2 | CCc1nn(-c2ccccc2)c(Oc2ccccc2)c1CN(C[C@H]1CCCO1)C(=O)C(C)C | -24
3 | O=C1N[C@H]2C[C@@H](C(=O)NC[C@H]3O[C@H](CCOc4cc(-c5ccccc5)ccc41)CC[C@@H]3O)N(Cc1ccc(Cl)c(F)c1)C2 | -7
4 | CC(=O)N1CCc2cc(NS(=O)(=O)c3cc(C)ccc3O)ccc21 | -14
5 | CCC(CC)(NCC(=O)NC1CC1)c1ccc(Cl)cc1 | -1
6 | Cn1cc(NC(=O)C(=O)NCC2(c3ccc(F)cc3F)CC2)cn1 | 8
7 | CN(C)Cc1cn(C[C@H]2C[C@@H](NC(=O)Nc3ccc4c(c3)OCCO4)[C@H](O)[C@@H]2O)nn1 | 13
8 | O=S(=O)(c1ccc(Br)cc1)N1CCOC12CCCCC2 | -5
9 | CC(=O)N[C@H](C(=O)N1CCCC1)C(C)C | 4
10 | Clc1ccc(NC2(c3noc([C@@H]4CCCCO4)n3)CCC2)cc1 | 5
11 | CCc1c[nH]c(CNC(=O)C2(C(=O)NC3CC3)CCC2)n1 | 7
12 | CC[C@H]1Cn2c(C(=O)NCc3ccc4c(c3)OCO4)cc3c(Cl)ccc(c32)O1 | -10
13 | CCOC(=O)N(c1ccccc1)[C@H]1CC(=O)N(c2ccccc2)C1=O | 17
14 | CCCc1ccc(OCCNC(=O)C2CCCC2)cc1 | 3
15 | Cc1noc(C)c1CC(=O)N1C[C@H]2CCCC(=O)N(Cc3ccccc3)[C@H]2C1 | 10
16 | Cc1nn(CC(=O)NC2CC3CCC(C2)N3C)c2nc(C3CC3)cc(C(F)(F)F)c12 (stereo not given) | 10
17 | CCOC(=O)c1cc(NC(=O)C(C)(C)NC(=O)OC(C)(C)C)c(F)cc1C | 8
18 | Cc1noc2ncc(C(=O)N3CCC[C@@H]3CC(C)(C)C)cc12 | 0
19 | COc1cccc(C(=O)N2CCC3(CC2)C[C@@H](OCc2ccccc2)CCO3)c1 | 12
20 | CCCOC(=O)Nc1ccc(Br)cc1Br | -2
21 | CS(=O)(=O)N[C@H]1C[C@@H]2C[C@H]1N(C(=O)NCc1cccc(F)c1)C2 | 9
22 | CCc1cc(C(=O)NCc2cn(C)nc2C)c2c(C3CC3)nn(-c3ccc(F)cc3)c2n1 | 10
23 | Cc1ccc(-c2n[nH]c(NC(=O)Nc3ccc(F)c(S(=O)(=O)NC4CC4)c3)c2C)o1 | -5
24 | CCOc1ccc(C(=O)N2CCN(c3nnc4ccccn34)CC2)cc1 | 8
25 | Brc1ccc(Oc2ncc(CN3CCOCC3)s2)cc1 | 7

Row | Compound | % Inhibition [%]
26 | O=C(COc1ccccc1Cl)Nc1ccc(C2(c3ccc(NC(=O)COc4ccccc4Cl)cc3)c3ccccc3-c3ccccc32)cc1 | 10
27 | N#Cc1cncc(N2CCc3ccccc3C2)n1 | 6
28 | O=C(c1ccc(Cl)c(Cl)c1)C1CCN(C(=O)[C@H]2CCn3cncc3C2)CC1 | 12
29 | Cc1ccc(C)c(N2CCN(c3ncc4c(=O)n(-c5ccc6c(c5)OCO6)c(=O)[nH]c4n3)CC2)c1 | 3
30 | CCc1nnc(NC(=O)C2CC2c2ccccc2)s1 (stereo not given) | 1
31 | C[C@@H](c1ccccn1)N1CCC2(CCCCC2)CC1 | -2
32 | COc1ccc2c(/C=C/c3cc[n+](C)cc3)cn(Cc3ccccc3)c2c1 | 62
33 | CCn1cc([C@@H](O)C(F)(F)F)c(C)n1 | -6
34 | C[C@H](C(=O)NCc1cc(F)cc(F)c1)C1CCOCC1 | 4
35 | Cc1c(-c2ccc(F)cc2)[nH]c2ccc(CNc3nccc(N(C)C)n3)cc12 | 50
36 | O=C(NCCN1CCCCC1)c1cn2ccnc(-c3ccccc3)c2n1 | 4
37 | CCOc1ccc(-c2cc(NC(=O)c3cc(-c4cccnc4)nc4ccccc34)on2)cc1OCC | 98
38 | C[C@H](NC(=O)c1ccc(Cl)o1)c1nnc2n1CCCCC2 | 0
39 | COc1ccc(CC(=O)Nc2cc(C)n(-c3cccc(Cl)c3)n2)cc1 | 93
40 | COc1ccc(NC(=O)[C@@H](c2ccc(OC)c(OC)c2)N(Cc2ccccc2)C(=O)Cn2nnc3ccccc32)cc1 | -7
41 | CCCS(=O)(=O)NC1CCC2(CC1)OCCO2 | -18
42 | O[C@H]1CNCC[C@@H]1Nc1cc(-c2ccccc2)nc2ccccc12 | 76
43 | Cc1ccnc(N(C(=O)c2cc(Cl)ccc2Cl)C(=O)c2cc(Cl)ccc2Cl)c1 | -11
44 | CCN(CC(=O)Nc1ccccc1OC)C(=O)c1ccc(S(=O)(=O)N2CCOCC2)cc1 | 7
45 | O=c1cc(COc2ccc(F)c(F)c2)nc2sccn12 | 9
46 | CNC(=O)[C@@H]1C[C@H](NCc2cc(OC)c(OC)c(OC)c2)CN1CC(c1ccccc1)c1ccccc1 | 50
47 | Cc1cccc(Cn2ccc(-c3cccc(OCc4ccc(Cl)cc4Cl)c3)n2)c1 | -7
48 | Cc1cc2nc(C)c3c(n2n1)N(Cc1ccccc1Cl)CC3 | 4
49 | CCOC(=O)Nc1nc(-c2ccccc2)c(C(=O)c2ccc(S(C)(=O)=O)cc2)s1 | 11
50 | Cc1cnc(CC[C@H]2CCCN2C(=O)CCCc2ccccc2)n1C | 10

Row | Compound | % Inhibition [%]
51 | CCCC1(c2ccncc2)CC(C)OC1=O (stereo not given) | 10
52 | COc1nc(NC2CCS(=O)(=O)CC2)ncc1F | 77
53 | CC1(C)COCCN1C(=O)Cc1cnn(-c2ccccc2)n1 | 5
54 | Cc1noc(NCc2ccc(Cl)cc2)n1 | 23
55 | Cc1nnc(-c2ccc3ccn(CC(=O)Nc4ccc(F)c(Cl)c4)c3c2)o1 | 96
56 | COc1ccc(C)cc1NC(=O)C[C@H]1CCN(S(C)(=O)=O)C1 | 9
57 | CC(C)(C)OC(=O)CN(c1cc(F)cc(F)c1)S(=O)(=O)c1ccc2nncn2c1 | -2
58 | Cc1noc(C)c1NS(=O)(=O)c1ccc2c(c1)OCCCO2 | 0
59 | CC1(C)NC(=O)N(CNc2ccc(Br)cc2)C1=O | -20
60 | CC(C)CC(=O)Nc1ccc2c(c1)C(N1CCC(C)CC1)=Nc1ccccc1O2 | -17
61 | Nc1c(-c2ccccc2)nsc1C(=O)NCCc1cccs1 | 7
62 | Cc1c(C(c2ccc(-c3ccccc3Cl)o2)c2c(C)n(C)n(-c3ccccc3)c2=O)c(=O)n(-c2ccccc2)n1C | 5
63 | Cc1cc(NC(=O)[C@@H](c2ccccc2)N2CCCCC2=O)sn1 | 1
64 | CCC(C(=O)Nc1ccc2c(c1)CN(CCc1ccc(OC)c(OC)c1)C(=O)C(C)O2)c1ccccc1 (stereo not given) | 100
65 | O=C(NCc1ccccn1)c1cc(C(F)(F)F)cc(C(=O)Nc2ccccc2)n1 | 12
66 | O=C(Nc1ccncc1)c1ccc2ccccc2n1 | 18
67 | COc1cc(CNCCCN2CCOCC2)ccc1OCc1ccc(Cl)cc1 | 40
68 | CC(C)(C)n1ncnc1NC(=O)c1cc(Cl)cc(Cl)c1 | 23
69 | Cc1cc(C)n(-c2ccc(-c3nnc(-c4cc5cc(Oc6ccccc6)ccc5[nH]4)s3)cc2)n1 | 6
70 | Cc1ccc(NC(=O)c2cc[nH]n2)c(C)c1 | -23
71 | Cc1c(-c2nn(-c3nc(C4CC4)cc(C(F)(F)F)n3)c(-c3cnn(C)c3C)c2Cl)cnn1C | 14
72 | Cn1c(CN2CCN(c3ccccc3)CC2)c(C#N)c2ccccc21 | -8
73 | Cc1nc(C(=O)Nc2[nH]c(=O)ncc2F)c(-c2ccccc2)o1 | 70
74 | Cc1cc(-c2ccccc2)cc(-c2ccccc2)c1-c1cc(-c2ccccc2)cc(-c2ccccc2)n1 | -3
75 | Nc1nonc1C(=O)N1CCN(C(=O)Nc2ccc3c(c2)OCO3)CC1 | -12

Row | Compound | % Inhibition [%]
76 | O=C(N[C@@H](CCO)c1ccco1)c1cc(Cn2cccn2)on1 | -23
77 | Cn1ccnc1CN1CCC[C@@](O)(CNS(=O)(=O)c2cccs2)CC1 | -12
78 | COc1ccc(CC(=O)NCCn2c(C(F)(F)F)nc3ccccc32)cc1 | 9
79 | CCS(=O)(=O)C1CN(C(=O)c2ccnn2C2CCCC2)C1 | -2
80 | CCc1ccc(C(NC(=O)C2CCNC2)C(C)(C)C)o1 (stereo not given) | -8
81 | NS(=O)(=O)N[C@H]1CCCc2sc(Cl)cc21 | 9
82 | O=C(NCCCN1CCOCC1)C1C2CCCC21 (stereo not given) | 8
83 | COc1ccc(CCN2C(=O)CC[C@H]2c2cn(C)c3ccccc23)cc1OC | 5
84 | COc1cc(CNCc2ccco2)ccc1OCc1cccc(C)c1 | 3
85 | Cc1nnc(-c2ccco2)c2cn(-c3ccc(Cl)cc3)nc12 | -11
86 | Cc1cnc(C2CCC2)n1CCNS(=O)(=O)c1ccccc1 | 2
87 | O=C(Nc1ccc(F)cc1)c1c(-c2ccc(Cl)cc2)nc2n1CCS2(=O)=O | -4
88 | NC(=O)C1CCN(C(=O)NC2CCCCCC2)CC1 | -19
89 | O=C(CCn1nc(-c2cccc(Cl)c2)ccc1=O)NCc1ccc(F)cc1F | 8
90 | CC1CN(C(=O)C(C(C)C)N2CC(C)OC(C)C2)CCO1 (stereo not given) | -12
91 | O=C(N[C@H](c1ccccc1)C1CC1)C(c1ccccc1)c1ccccc1 | 11
92 | Cc1nn(C)cc1-c1cc(-c2nnc(Nc3ccn(Cc4ccccc4Cl)n3)s2)no1 | 19
93 | Brc1cnn(Cc2cnc(NC3C4CCOC4C34CCC4)s2)c1 (stereo not given) | 4
94 | COc1ccnc(NCc2ccc(N3CCOCC3)cc2)n1 | 10
95 | CCCNC(=O)Cn1nc2cc(-c3ccc(OC)cc3)nc(C)n2c1=O | -8
96 | CC[C@@H](C(=O)Nc1cccc(C(F)(F)F)c1)n1c(C)nc2onc(C)c2c1=O | -1
97 | COCc1nsc(N2CC(C)OC3(CCCOC3)C2)n1 (stereo not given) | 5
98 | Oc1ccc(Br)cc1-c1nc2cnccn2c1NC1CCCCC1 | 15
99 | COc1ccc(C(=O)Cn2nc(C)cc2C)cc1 | 5
100 | CCn1cc(Cl)c(C(=O)N2CCN(C(=O)c3ccco3)CC2)n1 | -20
